According to the supplement of paper PMC3656093:
± gives the standard deviation of the averaged measurements. Whole data set: some 1,900 compounds, median “CD40L-induced NF-kB luciferase activity, plate-corrected, relative to DMSO (0) and IKK inhibitor VII (-100) controls” near 0.032, cut for the lowest 2% near -26. The list shows a part of the results.

system: BL2-NFkB-Luc; test: CD40L-induced NF-kB luciferase activity, plate-corrected, relative to DMSO (0) and IKK inhibitor VII (-100) controls (% normalized activity); higher = more NF-kB reporter activity (less inhibition); conditions: 9.4 µM; stimulus: tCD40L 64 ng/ml; 4.5 h
Method: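 BL2 B cells with a stable NF-kB response-element luciferase reporter (BL2-NFkB-Luc), 384-well. Cells were pre-incubated with compound at 9.4 uM for 1 h at 37 C, then stimulated with 64 ng/ml trimerized CD40L for 4.5 h; luciferase was read with Steady-Glo. Signal was normalised per plate in Genedata (median DMSO neutral control = 0, median IKK inhibitor VII at 50 uM = -100) with Assay Median plate-pattern correction; duplicate plates.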

Compound | CD40L-induced NF-kB luciferase activity
Cc1oc2c(C)c3oc(=O)c4c(c3cc2c1C)CCCC4 | 0.564 ± 2.2
CCCCC(=O)O[C@]1(C(=O)CO)CC[C@H]2[C@@H]3CCC4=CC(=O)CC[C@]4(C)[C@H]3[C@@H](O)C[C@@]21C | -43.1 ± 20
CC(C)CCc1noc(CN2CCC(CCN3CCCC3=O)CC2)n1 | 6.6 ± 0.72
CC1(C)c2ccccc2N2CC(=O)NC21/C=C/c1ccco1 (stereo not drawn) | -6.94 ± 4.5
COC(=O)c1cc(-c2ccc(C)o2)nc2ccccc12 | -2.83 ± 6
CN(C)CC/C=C1\c2ccccc2COc2ccccc21 | 1.31 ± 3.8
CCOC(=O)C1(Cc2cccc(Cl)c2)CCCN(C2CCN(C(C)=O)CC2)C1 (stereo not drawn) | -4.32 ± 1.5
CC(C)NS(=O)(=O)c1ccc(OCC(=O)Nc2cccc(F)c2)cc1 | -11.2 ± 15
COC(=O)c1ccc(OCCCCN2CC(C)OC(C)C2)cc1 (stereo not drawn) | -3.27 ± 2.1
Cc1ccc2c(c1)C1OCCC1C1N2C(=O)C2C(C(=O)O)C3C=CC21O3 (stereo not drawn) | 1.09 ± 0.44
O=C(Nc1ccc(F)c([N+](=O)[O-])c1)c1ccc2c(c1)OCCO2 | 29.4 ± 0.63
CCC(=O)Nc1ccc(C(=O)N2CCN(C(=O)c3ccco3)CC2)cc1 | -9.98 ± 0.32
CC(C)=CCC/C(C)=C/CC/C(C)=C/CC/C(C)=C/CC1=C(C)C(=O)c2ccccc2C1=O | -9.849 ± 0.051
Cc1ccc2c(c1)C1(C(=O)N2)N2CCCC2C(C(=O)c2ccc3ccccc3c2)C12C(=O)Nc1ccccc12 (stereo not drawn) | 41.8 ± 2.5
C[C@]12CC[C@@H]3c4ccc(O)cc4CC[C@H]3[C@@H]1C[C@@H](O)[C@@H]2O[C@@H]1O[C@H](C(=O)O)[C@@H](O)[C@H](O)[C@H]1O | -1.76 ± 2.4
O=C(Nc1ccc(N2CCOCC2)cc1)c1ccc(-c2ccccc2[N+](=O)[O-])o1 | 17.3 ± 0.45
CCOC(=O)[C@H](CCc1ccccc1)N[C@@H](C)C(=O)N1CCC[C@H]1C(=O)O | 3 ± 0.37
O=C(OCCNC(=O)c1ccc2ccccc2n1)c1ccc(F)cc1 | -1.56 ± 4
O=C(c1ccc(Cl)cc1)C1CCCN(Cc2ccc(Oc3ncccn3)cc2)C1 (stereo not drawn) | 0.281 ± 8.4
CC12CC(c3ccccc3O1)C(C(=O)N1CCOCC1)C(=O)N2 (stereo not drawn) | -5.76 ± 3.6
CC1=NN(C(=O)c2ccc(Br)cc2)C(O)(c2ccccc2)C1 (stereo not drawn) | 1.83 ± 0.89
COc1cc(NC(=S)NN2CCN(C)CC2)cc(OC)c1OC | -2.21 ± 1.4
CCC(C)NCCOCCOc1ccc(Cl)cc1Br (stereo not drawn) | 2.58 ± 2.4
c1ccc2[nH]c(-c3cscn3)nc2c1 | 39.3 ± 4
CN1[C@@H](CC(=O)c2ccccc2)CCC[C@H]1C[C@H](O)c1ccccc1 | -3.85 ± 2.5
C#CCN1C(=O)C(O)(c2c(C)[nH]c3ccccc23)c2ccccc21 (stereo not drawn) | -0.045 ± 4
COc1ccc2c(c1)[N+](C)(C)C(C)(C)C=C2C | 2.14 ± 1.6
COc1ccccc1C(O)c1nccn1C (stereo not drawn) | -0.914 ± 1.4
